# Assay results as given in the supplement of paper PMC9446081.
# Screen size: about 39,000 compounds; about 220 (0.56%) showed activity. The list shows a part of the results.
# System: Escherichia coli K-12 BW25113
# Assay: relative growth (OD600 normalised to plate interquartile mean) (fraction); higher = less growth inhibition, active = 0.2 or less
# Conditions: 50 µM; LB; incubation time: overnight (16-24 h)
# 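Note: static incubation at 37 °C against the wild-type strain, values averaged over two biological replicates.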
row,SMILES,relative growth
1,C[C@H]1CN([C@@H](C)CO)C(=O)c2cc(NC(=O)NC3CCCCC3)ccc2O[C@H]1CN(C)Cc1ccc(-c2ccccc2)cc1,inactive: 0.938
2,COc1ccccc1S(=O)(=O)N(C)C[C@H]1OCc2cnnn2CCCC(=O)N([C@@H](C)CO)C[C@H]1C,inactive: 0.98
3,COCC(=O)N(C)C[C@@H]1Oc2cc(C#C[C@H](C)O)ccc2S(=O)(=O)N([C@H](C)CO)C[C@@H]1C,inactive: 1
4,O=C(C[C@@H]1CC[C@@H]2[C@H](COC[C@@H](O)CN2C(=O)Nc2ccc(Cl)c(Cl)c2)O1)NCc1ccc(Cl)c(Cl)c1,inactive: 0.961
5,CCOC(=O)c1cc2c(c(-c3cccc(C#CCN(C)C)c3)n1)[C@@H](CCO[Si](C)(C)C(C)(C)C)N([S@](=O)C(C)(C)C)C2,inactive: 1.03
6,NC/C(=C/F)CCc1ccc(F)cc1,inactive: 0.983
7,C[C@@H]1CCCCO[C@@H](CN(C)C(=O)C2CCCCC2)[C@H](C)CN([C@@H](C)CO)C(=O)c2cc(NC(=O)NC3CCCCC3)ccc2O1,inactive: 1
8,COc1ccc(S(=O)(=O)Nc2ccc3c(c2)C(=O)N([C@H](C)CO)C[C@H](C)[C@H](CN(C)Cc2ccccc2)OCCCC[C@@H](C)O3)cc1,inactive: 1.01
9,C[C@@H]1CN([C@H](C)CO)C(=O)c2cccc(NC(=O)c3cnccn3)c2O[C@H]1CN(C)Cc1ccccc1,inactive: 1.02
10,O=C(N[C@H](c1ccc(F)cc1)c1ccc2ccccc2n1)C1CCN(CCOc2ccc(Cl)cc2Cl)CC1,inactive: 0.982
11,C[C@@H]1CN([C@H](C)CO)C(=O)c2cc(NS(=O)(=O)c3ccc(F)cc3)ccc2O[C@@H]1CN(C)S(=O)(=O)c1cn(C)cn1,inactive: 1.03
12,OC[C@H]1O[C@@H](Oc2ccc(O)cc2)[C@H](O)[C@@H](O)[C@@H]1O,inactive: 1.01
13,C[C@H](CO)N1C[C@H](C)[C@@H](CN(C)S(C)(=O)=O)Oc2ccc(NC(=O)Nc3ccc(C(F)(F)F)cc3)cc2CC1=O,inactive: 0.977
14,COCC(=O)N1CCN2C[C@H](C(=O)O)CN(Cc3ccoc3)C[C@@H]2C1,inactive: 1.02
15,Cc1ccc(S(=O)(=O)Nc2cccc3c2O[C@@H](CN(C)Cc2ccc(Cl)c(Cl)c2)[C@@H](C)CN([C@H](C)CO)C3=O)cc1,inactive: 1.03
16,C[C@H](CO)N1C[C@H](C)[C@@H](CN(C)Cc2ccc3c(c2)OCCN3C)OCc2cn(nn2)CCCC1=O,inactive: 0.973
17,C[C@H]1CN([C@@H](C)CO)C(=O)Cc2cc(NS(=O)(=O)c3ccccc3)ccc2O[C@@H]1CN(C)Cc1ccc(-c2ccccc2)cc1,inactive: 0.993
18,C[C@@H]1CN([C@@H](C)CO)C(=O)c2cc(NS(=O)(=O)c3ccc(F)cc3)ccc2O[C@@H]1CN(C)S(C)(=O)=O,inactive: 1.01
19,C[C@@H]1CN([C@@H](C)CO)C(=O)CCCn2nncc2CO[C@@H]1CN(C)C(=O)Nc1ccc2c(c1)OCO2,inactive: 0.974
20,C[C@@H]1CN([C@@H](C)CO)C(=O)c2cc(NC(=O)C3CCCCC3)ccc2O[C@@H](C)CCCCO[C@@H]1CN(C)C(=O)Nc1ccc(C(F)(F)F)cc1,inactive: 0.992

row,SMILES,relative growth
1,Cc1ccc(S(=O)(=O)N(C)C[C@@H]2Oc3ccc(NC(=O)C4CC4)cc3C(=O)N([C@H](C)CO)C[C@@H]2C)cc1,inactive: 1.04
2,COc1ccc(S(=O)(=O)N(C)C[C@H]2OCCCC[C@H](C)Oc3ccc(NC(=O)Nc4c(C)noc4C)cc3C(=O)N([C@@H](C)CO)C[C@H]2C)cc1,inactive: 0.996
3,Cc1noc(C)c1NC(=O)N(C)C[C@H]1Oc2c(NC(=O)Nc3cccc4ccccc34)cccc2C(=O)N([C@H](C)CO)C[C@@H]1C,inactive: 0.99
4,CCc1c(C(=O)OC)nnn1-c1nonc1N,inactive: 0.943
5,CC(C)NC(=O)N[C@H]1C=C[C@@H](CC(=O)NCCN2CCCC2)O[C@@H]1CO,inactive: 1.03
6,C[C@H]1CN([C@@H](C)CO)C(=O)c2cccc(NC(=O)C3CCCCC3)c2O[C@@H]1CN(C)S(=O)(=O)c1cn(C)cn1,inactive: 1.01
7,C[C@@H]1CN([C@@H](C)CO)C(=O)c2cc(C#CC3(O)CCCC3)cnc2O[C@H]1CN(C)S(=O)(=O)c1ccccc1,inactive: 1.01
8,C[C@@H]1CN([C@H](C)CO)S(=O)(=O)c2ccc(C#CC3CC3)cc2O[C@@H]1CN(C)C(=O)C1CCCCC1,inactive: 0.997
9,O=C(C[C@@H]1CC[C@@H]2[C@H](COC[C@@H](O)CN2S(=O)(=O)c2ccccc2F)O1)N1CCC(Cc2ccccc2)CC1,inactive: 0.913
10,O=C(N[C@@H]1CC=CC[C@H](CC(=O)N(CCO)Cc2ccccc2)C(=O)N[C@@H](Cc2ccccc2)COC1=O)OCC1c2ccccc2-c2ccccc21,inactive: 0.982
11,O[C@H]1CCCC[C@@H]1O,inactive: 1.03
12,COCc1cn(CC[C@@H]2CC[C@H](NC(=O)CCN3CCCCC3)[C@@H](CO)O2)nn1,inactive: 1
13,C[C@@H]1CCCCO[C@H](CN(C)Cc2ccc(C(F)(F)F)cc2)[C@H](C)CN([C@H](C)CO)C(=O)c2cc(NC(=O)Nc3ccc4c(c3)OCO4)ccc2O1,inactive: 1.02
14,Cc1nnsc1C(=O)NCC1(CO)CC1,inactive: 1.02
15,COc1ccccc1CNC(=O)C[C@@H]1C[C@@H]2c3cc(NC(=O)C4CCOCC4)ccc3O[C@@H]2[C@H](CO)O1,inactive: 1.01
16,C[C@@H]1CN([C@@H](C)CO)C(=O)c2c(c3ccccc3n2C)-c2ccccc2CO[C@@H]1CN(C)Cc1ccc(C(=O)O)cc1,inactive: 1.02
17,O=C(NCCN1CCN(c2ccccc2F)CC1)[C@H]1CCCN(S(=O)(=O)c2c[nH]cn2)C1,inactive: 0.979
18,Cc1ccc(S(=O)(=O)N(C)C[C@H]2Oc3ccc(NS(C)(=O)=O)cc3CC(=O)N([C@H](C)CO)C[C@H]2C)cc1,inactive: 0.939
19,COc1ccc(NC(=O)N(C)C[C@@H]2OCCCC[C@H](C)Oc3ccc(NC(=O)c4ccccc4)cc3C(=O)N([C@@H](C)CO)C[C@@H]2C)cc1,inactive: 1.02
20,C[C@@H]1CCCCO[C@@H](CN(C)C(=O)Cc2ccccc2)[C@H](C)CN([C@@H](C)CO)C(=O)c2cc(NC(=O)Nc3ccc(F)cc3)ccc2O1,inactive: 1.03

row,SMILES,relative growth
1,O=C(C[C@@H]1CC[C@H]2[C@@H](COC[C@@H](O)CN2C(=O)Nc2ccc(Cl)cc2)O1)NC1Cc2ccccc2C1,inactive: 0.952
2,COc1ccc(NC(=O)Nc2ccc3c(c2)C(=O)N([C@@H](C)CO)C[C@@H](C)[C@H](CN(C)C(=O)C2CCCCC2)OCCCC[C@H](C)O3)cc1,inactive: 1.04
3,COc1cccc(C(=O)Nc2ccc3c(c2)C(=O)N(C)[C@@H]2CC[C@H](CC(=O)NCC4CC4)O[C@@H]2CO3)c1,inactive: 1.03
4,CCCNC(=O)C[C@H]1CC[C@@H]2[C@@H](COc3ccc(NS(=O)(=O)c4ccccc4C)cc3C(=O)N2C)O1,inactive: 0.989
5,COc1ccc(NC(=O)Nc2ccc3c(c2)C(=O)N([C@H](C)CO)C[C@@H](C)[C@H](CN(C)Cc2ccc(C(F)(F)F)cc2)OCCCC[C@H](C)O3)cc1,inactive: 0.925
6,COC(=O)C1=C(N)N(c2cccc(C(F)(F)F)c2)C2=C(C(=O)CC(C)(C)C2)[C@@H]1c1ccc(OC)cc1,inactive: 1.06
7,C[C@@H]1CCCCO[C@@H](CN(C)C(=O)NC2CCCCC2)[C@@H](C)CN([C@@H](C)CO)C(=O)c2cc(NC(=O)Nc3ccccc3)ccc2O1,inactive: 0.985
8,Cc1noc(C)c1NC(=O)Nc1ccc2c(c1)C(=O)N([C@H](C)CO)C[C@H](C)[C@H](CN(C)C(=O)NC1CCCCC1)OCCCC[C@H](C)O2,inactive: 0.995
9,C[C@H](CO)N1C[C@H](C)[C@H](CN(C)C(=O)Nc2cccc3ccccc23)Oc2ncc(-c3cccc(F)c3)cc2C1=O,inactive: 1.01
10,O=C(O)c1cc2ncc(CCO)cn2n1,inactive: 1.03
11,Cc1cc(C(=O)Nc2cccc3c2O[C@H](CN(C)S(=O)(=O)c2cn(C)cn2)[C@@H](C)CN([C@@H](C)CO)C3=O)n(C)n1,inactive: 0.961
12,COc1ccc(NC(=O)N(C)C[C@@H]2OCCCC[C@H](C)Oc3ccc(NC(=O)Nc4ccc5c(c4)OCO5)cc3C(=O)N([C@H](C)CO)C[C@@H]2C)cc1,inactive: 1.07
13,Cc1ccccc1-c1ccc(N)cc1,inactive: 0.974
14,C[C@H](CO)N1C[C@H](C)[C@H](CN(C)Cc2ccc(-c3ccccc3)cc2)Oc2ccc(NC(=O)Nc3ccc(C(F)(F)F)cc3)cc2CC1=O,inactive: 1.02
15,C[C@H](CO)N1C[C@H](C)[C@@H](CN(C)S(=O)(=O)c2ccccc2)Oc2ccc(NS(=O)(=O)c3ccccc3)cc2C1=O,inactive: 1.01
16,C[C@@H]1CN([C@H](C)CO)C(=O)c2cc(C#Cc3ccccc3F)cnc2O[C@H]1CN(C)C(=O)C1CCOCC1,inactive: 1.02
17,Cc1noc(C)c1NC(=O)N(C)C[C@@H]1OCCCC[C@H](C)Oc2ccc(NC(=O)Nc3cccc4ccccc34)cc2C(=O)N([C@@H](C)CO)C[C@H]1C,inactive: 1.01
18,Cc1ccc(S(=O)(=O)N2C[C@H](O)COC[C@H]3O[C@H](CC(=O)NCCN4CCCCC4)CC[C@@H]32)cc1,inactive: 1.01
19,C[C@@H]1CN([C@H](C)CO)C(=O)Cc2cc(NC(=O)CCCN(C)C)ccc2O[C@@H]1CN(C)S(=O)(=O)c1ccc(Cl)cc1,inactive: 0.973
20,COc1ccc(NC(=O)Nc2ccc3c(c2)C(=O)N([C@@H](C)CO)C[C@H](C)[C@@H](CN(C)Cc2ccc(Cl)c(Cl)c2)OCCCC[C@H](C)O3)cc1,inactive: 0.984
